Measurements from a compilation of properties of binary mixtures (doi:10.1021/jp403813g).
Some of these densities may be calculated back from excess volumes.

Experiment: xn = mol fraction of the nth substance listed
Conditions: 100 kPa

CC[n+]1ccn(C)c1.[Cl-] + CS(C)=O
mass density [kg/m3]
Conditions | 298.15 K | 303.15 K | 308.15 K | 313.15 K
x1 = 0.0194 | – | – | 1088.1 | 1083.6
x1 = 0.0453 | 1099.3 | – | 1090.8 | –
x1 = 0.0677 | 1101.3 | 1098.5 | 1093.3 | 1089.4
x1 = 0.0984 | 1104.2 | 1101.6 | 1096.8 | –
x1 = 0.1236 | 1106.6 | 1104.1 | 1099.8 | 1096.3
x1 = 0.1619 | 1110.4 | 1108 | 1104.2 | 1101
x1 = 0.2143 | – | 1113.5 | 1110.1 | 1107.3
x1 = 0.2927 | – | – | – | 1116
x1 = 0.3737 | 1129.2 | 1128.3 | 1126 | 1123.9
x1 = 0.4429 | 1133.8 | 1133.3 | 1131.1 | 1129.3
x1 = 0.5264 | 1137.9 | 1137.6 | 1135.6 | 1134
x1 = 0.6072 | – | 1139.9 | 1137.8 | 1136.3
x1 = 0.7477 | – | 1138.7 | 1136.4 | 1134.7
x1 = 0.7986 | 1137.9 | 1136.7 | 1134.1 | 1132.2
x1 = 0.8501 | – | 1133.7 | 1130.9 | 1128.8
x1 = 0.8944 | 1132.7 | 1130.5 | 1127.4 | 1124.9
x1 = 0.9396 | 1129.3 | 1126.4 | 1123.1 | 1120.3
x1 = 0.9694 | 1126.7 | 1123.4 | 1120 | 1116.8
x1 = 1 | 1123 | 1119.5 | 1115.4 | 1111.9
x2 = 0.0071 | 1123.9 | 1120.1 | 1116.5 | 1112.9

CS(C)=O + CC[n+]1ccn(C)c1.[Cl-]
x2 = 0
Conditions | mass density [kg/m3]
298.15 K | 1095.4
303.15 K | 1092.4

CS(C)=O + CCCC[n+]1ccn(C)c1.[Cl-]
Conditions | mass density [kg/m3]
313.15 K, x2 = 0 | 1081.4

CCCC[n+]1ccn(C)c1.[Cl-] + CS(C)=O
mass density [kg/m3]
Conditions | x1 = 0.0341 | x1 = 0.2433 | x1 = 0.3705 | x1 = 0.4746 | x1 = 0.7115 | x1 = 0.843 | x1 = 0.9445
298.15 K | – | – | – | 1090.5 | – | – | –
313.15 K | 1083.8 | 1086.8 | 1084 | 1081.4 | 1074.6 | 1070.3 | 1066.9
